Out of some 310,000 compounds screened, about 2,200 (0.71%) showed an effect of 50% or more. The effect is printed as a negative number. The list shows a part of the results.
target: human ether-à-go-go-related gene (hERG) potassium channel (human, UniProt Q12809); experiment: primary screen, population patch clamp on CHO cells stably expressing hERG
Sequence (Q12809 whole entry, looked up): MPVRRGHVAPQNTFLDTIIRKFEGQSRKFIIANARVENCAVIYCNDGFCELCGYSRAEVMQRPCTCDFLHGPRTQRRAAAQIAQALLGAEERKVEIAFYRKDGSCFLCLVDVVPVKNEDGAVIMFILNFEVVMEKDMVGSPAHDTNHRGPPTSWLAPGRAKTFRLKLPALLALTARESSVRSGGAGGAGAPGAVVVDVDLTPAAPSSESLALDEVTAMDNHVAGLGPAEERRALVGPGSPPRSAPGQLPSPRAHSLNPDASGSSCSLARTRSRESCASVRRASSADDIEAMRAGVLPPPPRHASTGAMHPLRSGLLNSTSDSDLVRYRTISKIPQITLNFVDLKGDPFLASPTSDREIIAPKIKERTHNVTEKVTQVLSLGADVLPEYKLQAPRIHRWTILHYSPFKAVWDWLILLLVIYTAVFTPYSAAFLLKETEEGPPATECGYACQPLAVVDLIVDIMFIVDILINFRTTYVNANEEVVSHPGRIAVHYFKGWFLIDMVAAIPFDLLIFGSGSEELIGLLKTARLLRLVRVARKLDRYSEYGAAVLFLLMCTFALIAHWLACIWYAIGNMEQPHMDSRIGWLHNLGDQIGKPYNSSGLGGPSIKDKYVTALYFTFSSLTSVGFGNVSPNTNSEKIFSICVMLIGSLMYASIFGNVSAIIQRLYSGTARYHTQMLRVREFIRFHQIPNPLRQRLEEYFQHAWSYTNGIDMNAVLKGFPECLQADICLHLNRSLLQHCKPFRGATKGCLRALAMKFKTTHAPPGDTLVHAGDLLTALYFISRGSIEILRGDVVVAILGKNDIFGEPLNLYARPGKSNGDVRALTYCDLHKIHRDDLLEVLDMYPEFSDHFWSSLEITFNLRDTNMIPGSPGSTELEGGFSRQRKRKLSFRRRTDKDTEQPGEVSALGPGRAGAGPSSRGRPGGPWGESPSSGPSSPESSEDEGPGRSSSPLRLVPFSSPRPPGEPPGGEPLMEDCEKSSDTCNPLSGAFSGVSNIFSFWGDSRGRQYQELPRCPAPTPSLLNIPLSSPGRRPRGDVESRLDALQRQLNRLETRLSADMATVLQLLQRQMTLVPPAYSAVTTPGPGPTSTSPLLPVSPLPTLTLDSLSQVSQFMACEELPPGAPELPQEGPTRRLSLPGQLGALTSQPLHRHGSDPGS

Row | SMILES | hERG current change (%, negative = inhibition) at 1uM [%]
1 | Cc1ccc(-c2cc(C(=O)O)c3cc(Br)ccc3n2)o1 | 12.9
2 | CCOc1ccccc1-c1nc(-c2ccc(C)nc2OC)no1 | 7.25
3 | Cc1nnc(SCC(=O)OC2CC(C)CCC2C(C)C)[nH]c1=O (stereo not drawn) | 12.6
4 | Cc1cccc2c1-c1sc(C(=O)NCCCN3CCCC(C)C3)cc1CO2 (stereo not drawn) | 16.2
5 | Cc1ccc2[nH]c3c(c2c1)CNCC3.Cl | 17.8
6 | Cc1cc(C)n(-c2nc(C)nc(N)n2)n1 | 13.2
7 | COc1ccc(CN(CCN2CCOCC2)C(=O)c2c(F)cccc2F)cc1OC.Cl | -3.02
8 | CC(=O)NCC(=O)N(C)C(C(=O)Nc1ccc2c(c1)OCCO2)c1ccccc1 (stereo not drawn) | 8.77
9 | Cn1c(C(=O)NC2CC2)cc2c(=O)n(C)c3ccccc3c21 | 7.46
10 | CC1(C)CC(=O)C2=C(C1)NC(=O)C21C(C(=O)OC(C)(C)C)=C(N)Oc2ccc(Br)cc21 (stereo not drawn) | -0.34
11 | Cc1cc(C)n2nc(C(=O)Nc3ccn(Cc4ccccc4C)n3)cc2n1 | 12.2
12 | COc1ccc(-n2c(=S)[nH]c3sc4c(c3c2=O)CCN(C)C4)cc1 | 16.9
13 | COc1ccccc1/C=C\C=N\NC(=O)CCn1nnc2ccccc21 | 9.61
14 | CC(=O)N[C@@H](C)c1nc2ccccc2n1CCCN1CCN(c2nc(-c3ccc(C)cc3)cs2)CC1 | 2.16
15 | O=C(/C=C/c1ccco1)N(Cc1cccc(F)c1)C1CCS(=O)(=O)C1 (stereo not drawn) | 6.89
16 | Cc1ccc(-c2cc(-c3ccco3)c3c(N)c(C(=O)NN)oc3n2)cc1 | 11.4
17 | COc1cc(OC)c(OC)cc1CNC(=O)c1cc(S(=O)(=O)N2CCOCC2)ccc1F | -1.57
18 | COC(=O)CCC(NC(=O)c1cc(-c2ccc3c(c2)OCCO3)oc1C)C(=O)OC (stereo not drawn) | 7.54
19 | CCCCn1c(N)c(N(CCOC)C(=O)CSCc2ccccc2C)c(=O)[nH]c1=O | -5.21
20 | Cc1nn(Cc2ccccc2)c(Cl)c1C(=O)NCc1ccc(C)n1C | -7.78
21 | O=C(Nc1ccc(N2CCOCC2)cc1)C1CC(=O)N(c2ccccc2)C1 (stereo not drawn) | -7.38
22 | COc1cc(CNC(=O)c2ccccc2NC(=O)C2=C(C)OCCS2)cc(OC)c1OC | 15.8

Row | SMILES | hERG current change (%, negative = inhibition) at 1uM [%]
23 | O=C(O)CCCC(=O)N1CC(=O)Nc2ccccc21 | 10.5
24 | COc1ccc(C2=NOC(C(=O)NCc3ccco3)C2)cc1OC (stereo not drawn) | -5.49
25 | COc1ccc(-n2nc(C(=O)NCC(=O)NCc3cccc(F)c3)c3ccccc3c2=O)cc1Cl | 9.88
26 | COCc1cc(CN2CCCC(C(=O)Nc3cccc(-n4cnnn4)c3)C2)ccc1OC (stereo not drawn) | 8.23
27 | Cc1nn(-c2ccccc2)c(C)c1/C=N/NC(=O)CSc1nnc(-c2ccccc2)n1-c1ccc(Cl)cc1 | 13.5
28 | COc1ccc(C(=O)OCCCc2cc3ccccc3c(=O)o2)cc1 | 4.19
29 | Cc1cccc(NC(=O)c2ccccc2NC(=O)C(C)(C)C)n1 | 9.48
30 | O=C(Oc1ccccc1)N1CCN(c2ccc(F)cc2)CC1 | 0.535
31 | Nc1nc(-c2ccc(Br)cc2)c(S(=O)(=O)c2ccccc2)s1 | 4.37
32 | CCOc1ccccc1C(=O)Oc1cc(C)[nH]c(=O)c1[N+](=O)[O-] | 10.6
33 | COc1ccc(-c2c([C@H]3[C@H]4C=CC[C@@H](C)[C@@H]4C(=O)N3Cc3ccccc3)ccc3ccccc23)cc1OC | 12
34 | COc1cccc(-n2sc3c(c2=S)-c2cc(OC)ccc2NC3(C)C)c1 | 8.2
35 | COc1ccc(CNC(=O)c2ccc(CS(=O)Cc3ccc(Cl)cc3)o2)cc1 (stereo not drawn) | -11.4
36 | Cc1ccc(C)c(C(=O)COC(=O)c2cccc(N3C(=O)c4c(C)nc5ccccc5c4C3=O)c2)c1 | 27.9
37 | Fc1ccc(N2CCN(Cc3cnc(Cl)s3)CC2)cc1 | 9.97
38 | CC(NS(=O)(=O)c1ccc(OCC(=O)NCc2ccncc2)cc1)c1ccccc1 (stereo not drawn) | 16
39 | COc1ccc(Cl)cc1NC(=S)NC(=O)c1ccc2c(c1)OCO2 | 15.2
40 | C=CCn1c(CCNC(=O)C(C)(C)C)nc2ccccc21 | 13.5
41 | COc1cccc(CNC(=O)c2ccc(NC(=O)C3=CSCCO3)cc2)c1 | 17
42 | COCCCN(C(=S)NC(=O)C(C)(C)C)c1c(N)n(Cc2ccccc2)c(=O)[nH]c1=O | 17
43 | Cc1ccccc1C(=O)Nc1nnc(CC(=O)N/N=C/c2ccncc2)s1 | 13.9
44 | COc1ccc(NC(=O)CN(c2ccc(OC)cc2)S(=O)(=O)c2c(C)nn(C)c2C)cc1 | 14.3

Row | SMILES | hERG current change (%, negative = inhibition) at 1uM [%]
45 | CCn1c(SCC(=O)C(C)(C)C)nnc1-c1ccccn1 | 15.9
46 | O=C1N/C(=N\N=C\c2cccs2)SC1Cc1ccc(Cl)cc1 (stereo not drawn) | -1.78
47 | CCOC(=O)c1ccc(NC(=O)CC2C(=O)OCCN2CC)cc1 (stereo not drawn) | 8.02
48 | CCC(=O)N1CCN(c2ccc(Cl)cc2NC(=S)NC(=O)c2ccco2)CC1 | 6.25
49 | O=S(=O)(NCCc1ccccn1)c1ccc(OC(F)(F)F)cc1 | 11.4
50 | Cc1csc(SCC(=O)NC23CC4CC(CC(C4)C2)C3)n1 | -5.7
51 | O=C(COc1ncnc2ccccc12)Nc1ccccc1[N+](=O)[O-] | 4.24
52 | O=C1Nc2ccccc2C12Nc1ccccc1S2 (stereo not drawn) | 4.9
53 | CC12CC3(C)CC(C)(C1)CC(C(=O)NC(=S)NC(C)(C)C)(C2)C3 | 9.73
54 | CCCSc1nnc(NC(=O)Nc2ccccc2OC)s1 | 16.9
55 | O=C(CCc1ccc(S(=O)(=O)N2CCOCC2)cc1)N/N=C/c1ccc(F)cc1F | 1.78
56 | CCCNC(=O)c1ccccc1NS(=O)(=O)c1ccc(OC)c(OC)c1 | -5.14
57 | CC1=C(C(=O)N2CCCC(CCC(=O)NCc3ccc(F)c(F)c3)C2)OCCO1 (stereo not drawn) | 13.8
58 | COc1ccc(S(=O)(=O)N2CCOCC2)cc1NC(=O)CSc1nnc2c(n1)[nH]c1ccccc12 | 5.29
59 | Cc1cc(C)c[n+](CC(=O)c2ccc(C)c([N+](=O)[O-])c2)c1.[Br-] | 4.61
60 | Cc1c(O)c2ccccc2oc1=O | 9.48
61 | CC(=O)N1c2ccc(S(=O)(=O)N3CCCC(C(=O)Nc4ccc(C)cc4C)C3)cc2CC1C (stereo not drawn) | 9.24
62 | COc1cccc(-c2nnc(NC(C)=O)o2)c1 | 2.28
63 | Oc1ccccc1-c1nc(NCC2CCCO2)c2ccccc2n1 (stereo not drawn) | 16.6
64 | O=C1c2ccccc2C(=O)N1c1cccc2ccccc12 | 6.93
65 | O=C(Nc1ccccc1C(=O)N1CCCC1)c1ccc(Cl)c([N+](=O)[O-])c1 | 7.51
66 | O=C(COC(=O)Cc1cccs1)Nc1ccc(OC(F)(F)F)cc1 | 8.83

Row | SMILES | hERG current change (%, negative = inhibition) at 1uM [%]
67 | O=C(Cc1ccc([N+](=O)[O-])cc1)Nc1cccc(C(F)(F)F)c1 | 2.82
68 | CCOC(=O)C(NC(C)=O)(N1CCOCC1)C(F)(F)F (stereo not drawn) | 17.2
69 | CN(C)c1ccc(C(O)P(=O)(OCc2ccccc2)c2ccc(N(C)C)cc2)cc1 (stereo not drawn) | 13.8
70 | Cc1ccc(S(=O)(=O)NCC(=O)NC2CCCCCC2)cc1 | -9.47
71 | Cl.O=C(Cc1ccccc1)NC1CCN(Cc2ccccc2)CC1 | 12.9
72 | CCCCn1c(SCC(N)=O)nnc1-c1ccco1 | 6.2
73 | CCOC(=O)c1ccccc1NC(=O)CN(c1ccccc1C)S(C)(=O)=O | 13.2
74 | C=CCOC(=O)C1=C(C)NC(C)=C(C(=O)OCC=C)C1c1cn(-c2ccccc2)nc1-c1ccco1 | 9.72
75 | Cc1ccccc1-n1c(SCC(=O)Nc2c(C)cccc2C)nc(O)cc1=O | 12.8
76 | CCOc1ccc2nc(SCC(=O)NCc3ccc(S(N)(=O)=O)cc3)sc2c1 | 8.59
77 | CC(=O)NCCC(=O)Nc1nc(-c2ccccc2Cl)cs1 | 2.26
78 | Cc1ccc(C)n1-c1cccc(NC(=O)c2ccccc2)c1 | 2.67
79 | CCOC(=O)c1c(C)[nH]c(C(=O)COC(=O)C2(C)CC2(Cl)Cl)c1C (stereo not drawn) | -11.7
80 | CSCCC(NC(=O)c1ccco1)C(=O)NCC(c1ccco1)N1CCCCC1 (stereo not drawn) | 6.49
81 | Cc1ccc(CSc2ccc(-c3cccs3)nn2)cc1 | 5.61
82 | CCOc1cc2c(cc1OCC)-n1cccc1C(c1ccc(OC(F)F)cc1)NC2.Cl (stereo not drawn) | -47.9
83 | CCCn1c(N2CCN(Cc3ccc(Cl)cc3)CC2)nc2ccccc21.Cl | -4.77
84 | CC(C)C[C@H]1COCCS(=O)(=O)N1Cc1cccc(Cl)c1 | 10.1
85 | CC(=O)N1CCC(N(C(=O)Nc2c(F)cccc2F)C(C)C)CC1 | 17.4
86 | Nc1ncnc2nc(SCC(=O)N3CCN(c4ccccc4)CC3)[nH]c12 | -0.857
87 | CCNC(=O)NC(=O)COC(=O)C1CSC2(C)CCC(=O)N12 (stereo not drawn) | 11.3
